# Whole data set: some 33,000 sequences, median “E-score (-0.5 to 0.5)” near -0.054, cut for the highest 2% near 0.35. The list shows a part of the results.
# Biological target: T1, Stb5 (UniProt P38699)
# T1 sequence: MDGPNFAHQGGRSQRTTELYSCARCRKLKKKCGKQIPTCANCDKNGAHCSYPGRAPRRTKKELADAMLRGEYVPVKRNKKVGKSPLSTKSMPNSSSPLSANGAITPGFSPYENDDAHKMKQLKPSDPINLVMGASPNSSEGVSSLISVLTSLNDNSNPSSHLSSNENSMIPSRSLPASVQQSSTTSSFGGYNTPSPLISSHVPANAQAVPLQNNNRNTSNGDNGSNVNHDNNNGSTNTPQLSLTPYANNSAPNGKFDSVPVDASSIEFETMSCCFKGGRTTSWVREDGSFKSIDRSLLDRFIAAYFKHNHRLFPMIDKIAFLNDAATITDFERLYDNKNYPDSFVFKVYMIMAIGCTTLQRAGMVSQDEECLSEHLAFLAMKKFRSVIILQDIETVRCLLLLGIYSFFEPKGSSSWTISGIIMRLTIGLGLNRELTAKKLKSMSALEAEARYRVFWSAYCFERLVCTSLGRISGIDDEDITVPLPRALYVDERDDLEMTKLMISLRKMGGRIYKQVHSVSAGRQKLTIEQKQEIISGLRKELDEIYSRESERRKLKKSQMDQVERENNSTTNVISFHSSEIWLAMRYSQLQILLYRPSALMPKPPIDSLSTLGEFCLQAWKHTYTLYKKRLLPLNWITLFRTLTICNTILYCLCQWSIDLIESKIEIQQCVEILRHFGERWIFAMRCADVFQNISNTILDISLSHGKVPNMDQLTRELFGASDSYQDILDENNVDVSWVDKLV
# Assay: PBM E-score (8-mer binding enrichment) (E-score (-0.5 to 0.5)); higher = stronger / more preferred TF binding; most listed sequences are background and not binding sites
# Conditions: protein concentration: 200 nM; construct: GST-full length
# Procedure, shortened: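 Using PURExpress in vitro transcription/translation, GST-tagged yeast transcription factors were made in full-length or DNA-binding-domain form. These were applied at about 100-200 nM to double-stranded universal all-10-mer Agilent arrays, and bound protein was detected with fluorescent anti-GST. Scans were normalised with masliner before the Universal PBM Analysis Suite assigned E-scores to ungapped eight-base words pooled with their reverse complements.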
row,Sequence,PBM E-score
1,AGCCAGGA,-0.212
2,ACATTCAT,-0.103
3,CGGTGGTC,0.26
4,ACCAGCAG,-0.388
5,CACTCTAC,-0.159
6,TCAAACCA,-0.0934
7,ATCGGGCA,0.17
8,TGCAACAA,-0.083
9,GGCTCACC,-0.102
10,GCGGAGCC,0.237
11,GTATTAGA,-0.0314
12,ATAAGATG,-0.303
13,CATGCTAG,-0.111
14,ATACCACC,0.334
15,CATATGTC,0.06
16,GTCGACTA,-0.16
17,CTTGCTCC,-0.0642
18,GGTTCTAC,0.2
19,CTCTATCC,-0.0198
20,GCTCAAAA,0.0351
21,ACTTGGGA,-0.122
22,AATTCAAG,-0.204

row,Sequence,PBM E-score
1,CGTAAGGA,-0.216
2,GTGACGTA,-0.0779
3,AGAGTTCG,-0.0267
4,AGTTCCAG,-0.0255
5,CCTCTCCC,-0.291
6,ATCGATGA,-0.128
7,AGTGCCGC,0.381
8,ACCTACGA,-0.127
9,CCAGTCGC,0.0868
10,CACTGATA,-0.348
11,CCTCAGAA,-0.233
12,CAGGCCTA,-0.00222
13,GATGGGAA,-0.259
14,CCCCAACA,0.00066
15,GCACAAAC,-0.032
16,CCTGAAGG,-0.14
17,CGCCCCGA,0.328
18,AGGTTAAG,-0.146
19,AGATGAAA,-0.155
20,CTAGCGAA,-0.301
21,GGCGAGCC,-0.0995
22,CGGTAACG,0.188

row,Sequence,PBM E-score
1,CGGCCTAA,0.313
2,CAGACGCA,-0.139
3,CATCGATC,-0.125
4,GATGGGCA,-0.207
5,TAATGCTA,-0.0856
6,ACAGTCCA,-0.357
7,CAAGTCAA,-0.204
8,ACAAGAGG,-0.151
9,GGTTCCTA,0.0107
10,CCGCGGCA,0.367
11,AGCTTGAG,0.0597
12,CAACCATG,-0.0567
13,GTGGCTCA,-0.168
14,ATCTCCAG,0.0194
15,AAAGCACC,0.311
16,CGTATGAG,-0.0006
17,ATCTGTGA,-0.0742
18,CGCTTCCC,0.0549
19,TAGTAGCA,-0.132
20,AAAATCTG,-0.104
21,CCATGGGA,-0.145
22,AGCCCCAT,-0.192

row,Sequence,PBM E-score
1,CTTCCGTC,0.299
2,CATGAGAA,-0.121
3,CCTGGGTA,0.00168
4,CCATTCAC,-0.116
5,AAAACCCT,-0.074
6,CCGGGGCA,0.17
7,CCCATTAC,-0.0791
8,GGGCCGAC,0.355
9,GCTGCTAC,-0.0302
10,GATACTGA,-0.0741
11,CGTTTACA,-0.0275
12,CCATCTAG,-0.0948
13,CTTGCTAA,-0.203
14,ACTCGGCG,0.08
15,AGTGAAGG,-0.0931
16,ACCAAGAT,0.0698
17,ACCGTATG,0.0965
18,CCACCAAA,-0.117
19,CAGGTAAA,0.0729
20,CACACCGA,0.344
